Not every detail of the peptide structures is certain; ends, links or a residue may be inferred. Residues, ends and D or L forms follow the SMILES beside them.
Molecular target: T1, Rat Pituitary Cells (Rattus norvegicus, UniProt Q02644)
T1 sequence (Q02644 23-464): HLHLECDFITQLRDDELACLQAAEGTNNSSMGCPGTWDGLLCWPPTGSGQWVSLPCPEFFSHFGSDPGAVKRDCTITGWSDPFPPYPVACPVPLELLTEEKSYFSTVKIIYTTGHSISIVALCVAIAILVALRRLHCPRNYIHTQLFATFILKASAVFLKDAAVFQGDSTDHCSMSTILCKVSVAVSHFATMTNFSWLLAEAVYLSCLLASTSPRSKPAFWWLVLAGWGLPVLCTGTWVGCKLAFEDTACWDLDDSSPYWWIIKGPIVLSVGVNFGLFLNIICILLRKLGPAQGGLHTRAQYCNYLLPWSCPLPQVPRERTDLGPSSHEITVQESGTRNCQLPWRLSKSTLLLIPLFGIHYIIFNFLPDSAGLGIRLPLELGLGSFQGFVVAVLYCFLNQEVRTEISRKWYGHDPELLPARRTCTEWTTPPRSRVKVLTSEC
Assay: GRF-analog mediated GH secretion from rat pituitary cells (method of Heiman et al.)
Assay type: cell-based
Conditions: EC50 [R^12,T^15,R^21,L^27]hGRF(1-29)NH2 / EC50 analog
Method: The polypeptide compounds of the invention may be assayed in numerous systems. One in vivo assay is carried out in sodium pentobarbital-anesthetized rats. Wehrenberg et al., Biochem. Biophys. Res. Commun. 109:382 (1982). Growth hormone release is measured in vitro with rat anterior pituitary cells. Heiman et al., Endocrinol. 116:410 (1985). Assays are also performed in wether lambs as described in the Examples provided hereinafter.
Various bGRF peptide analogs were synthesized by the solid phase synthesis method as described in U.S. Patent 4,617,149. The compounds were assayed in rat pituitary cells by the method of Heiman et al., Endocrinol. 116:410 (1985). The analogs are based on the sequence of the first 29 amino acids of human growth hormone releasing factor with the substitutions listed.

| Compound | Relative Potency (% of std) |
| --- | --- |
| CC[C@H](C)[C@H](NC(=O)[C@H](C)NC(=O)[C@H](CC(=O)O)NC(=O)[C@H](C)NC(=O)[C@H](Cc1ccc(O)cc1)NC(=O)[C@@H](N)CO)C(=O)N[C@@H](Cc1ccccc1)C(=O)N[C@H](C(=O)N[C@@H](CC(N)=O)C(=O)N[C@@H](CO)C(=O)N[C@@H](Cc1ccc(O)cc1)C(=O)N[C@@H](CCCNC(=N)N)C(=O)N[C@@H](CCCNC(=N)N)C(=O)N[C@H](C(=O)N[C@@H](CC(C)C)C(=O)N[C@H](C(=O)N[C@@H](CCC(N)=O)C(=O)N[C@@H](CC(C)C)C(=O)N[C@@H](CO)C(=O)N[C@@H](C)C(=O)N[C@@H](CCCNC(=N)N)C(=O)N[C@@H](CCCNC(=N)N)C(=O)N[C@@H](CC(C)C)C(=O)N[C@@H](CC(C)C)C(=O)N[C@@H](CCC(N)=O)C(=O)N[C@@H](CC(=O)O)C(=O)N[C@H](C(=O)N[C@@H](CC(C)C)C(=O)N[C@@H](CO)C(=O)N[C@@H](CCCNC(=N)N)C(N)=O)[C@@H](C)CC)[C@@H](C)O)C(C)C)[C@@H](C)O [[S^0,R^12,T^15,R^21,L^27]hGRF(1-29)NH2] (H-SYADAIFTNSYRRVLTQLSARRLLQDILSR-NH2) | .27 % of std |
| CC[C@H](C)[C@H](NC(=O)[C@H](C)NC(=O)[C@H](CC(=O)O)NC(=O)[C@H](C)NC(=O)[C@H](Cc1ccc(O)cc1)NC(=O)[C@H](C)NC(=O)[C@@H](N)CC(=O)O)C(=O)N[C@@H](Cc1ccccc1)C(=O)N[C@H](C(=O)N[C@@H](CC(N)=O)C(=O)N[C@@H](CO)C(=O)N[C@@H](Cc1ccc(O)cc1)C(=O)N[C@@H](CCCNC(=N)N)C(=O)N[C@@H](CCCNC(=N)N)C(=O)N[C@H](C(=O)N[C@@H](CC(C)C)C(=O)N[C@H](C(=O)N[C@@H](CCC(N)=O)C(=O)N[C@@H](CC(C)C)C(=O)N[C@@H](CO)C(=O)N[C@@H](C)C(=O)N[C@@H](CCCNC(=N)N)C(=O)N[C@@H](CCCNC(=N)N)C(=O)N[C@@H](CC(C)C)C(=O)N[C@@H](CC(C)C)C(=O)N[C@@H](CCC(N)=O)C(=O)N[C@@H](CC(=O)O)C(=O)N[C@H](C(=O)N[C@@H](CC(C)C)C(=O)N[C@@H](CO)C(=O)N[C@@H](CCCNC(=N)N)C(N)=O)[C@@H](C)CC)[C@@H](C)O)C(C)C)[C@@H](C)O [[D^-1,A^0,R^12,T^15,R^21,L^27]hGRF(1-29)NH2] (H-DAYADAIFTNSYRRVLTQLSARRLLQDILSR-NH2) | .09 % of std |
| CC[C@H](C)[C@H](NC(=O)[C@H](C)NC(=O)[C@H](CC(=O)O)NC(=O)[C@H](C)NC(=O)[C@H](Cc1ccc(O)cc1)NC(=O)[C@@H](N)CCC(N)=O)C(=O)N[C@@H](Cc1ccccc1)C(=O)N[C@H](C(=O)N[C@@H](CC(N)=O)C(=O)N[C@@H](CO)C(=O)N[C@@H](Cc1ccc(O)cc1)C(=O)N[C@@H](CCCNC(=N)N)C(=O)N[C@@H](CCCNC(=N)N)C(=O)N[C@H](C(=O)N[C@@H](CC(C)C)C(=O)N[C@H](C(=O)N[C@@H](CCC(N)=O)C(=O)N[C@@H](CC(C)C)C(=O)N[C@@H](CO)C(=O)N[C@@H](C)C(=O)N[C@@H](CCCNC(=N)N)C(=O)N[C@@H](CCCNC(=N)N)C(=O)N[C@@H](CC(C)C)C(=O)N[C@@H](CC(C)C)C(=O)N[C@@H](CCC(N)=O)C(=O)N[C@@H](CC(=O)O)C(=O)N[C@H](C(=O)N[C@@H](CC(C)C)C(=O)N[C@@H](CO)C(=O)N[C@@H](CCCNC(=N)N)C(N)=O)[C@@H](C)CC)[C@@H](C)O)C(C)C)[C@@H](C)O [[Q^0,R^12,T^15,R^21,L^27]hGRF(1-29)NH2] (H-QYADAIFTNSYRRVLTQLSARRLLQDILSR-NH2) | .191 % of std |
| CC[C@H](C)[C@H](NC(=O)[C@H](C)NC(=O)[C@H](CC(=O)O)NC(=O)[C@H](C)NC(=O)[C@H](Cc1ccc(O)cc1)NC(=O)[C@H](C)NC(=O)[C@H](C)N)C(=O)N[C@@H](Cc1ccccc1)C(=O)N[C@H](C(=O)N[C@@H](CC(N)=O)C(=O)N[C@@H](CO)C(=O)N[C@@H](Cc1ccc(O)cc1)C(=O)N[C@@H](CCCNC(=N)N)C(=O)N[C@@H](CCCNC(=N)N)C(=O)N[C@H](C(=O)N[C@@H](CC(C)C)C(=O)N[C@H](C(=O)N[C@@H](CCC(N)=O)C(=O)N[C@@H](CC(C)C)C(=O)N[C@@H](CO)C(=O)N[C@@H](C)C(=O)N[C@@H](CCCNC(=N)N)C(=O)N[C@@H](CCCNC(=N)N)C(=O)N[C@@H](CC(C)C)C(=O)N[C@@H](CC(C)C)C(=O)N[C@@H](CCC(N)=O)C(=O)N[C@@H](CC(=O)O)C(=O)N[C@H](C(=O)N[C@@H](CC(C)C)C(=O)N[C@@H](CO)C(=O)N[C@@H](CCCNC(=N)N)C(N)=O)[C@@H](C)CC)[C@@H](C)O)C(C)C)[C@@H](C)O [[A^-1,A^0,R^12,T^15,R^21,L^27]hGRF(1-29)NH2] (H-AAYADAIFTNSYRRVLTQLSARRLLQDILSR-NH2) | .26 % of std |
| CC[C@H](C)[C@H](NC(=O)[C@H](C)NC(=O)[C@H](CC(=O)O)NC(=O)[C@H](C)NC(=O)[C@H](Cc1ccc(O)cc1)NC(=O)[C@@H](N)Cc1c[nH]cn1)C(=O)N[C@@H](Cc1ccccc1)C(=O)N[C@H](C(=O)N[C@@H](CC(N)=O)C(=O)N[C@@H](CO)C(=O)N[C@@H](Cc1ccc(O)cc1)C(=O)N[C@@H](CCCNC(=N)N)C(=O)N[C@@H](CCCNC(=N)N)C(=O)N[C@H](C(=O)N[C@@H](CC(C)C)C(=O)N[C@H](C(=O)N[C@@H](CCC(N)=O)C(=O)N[C@@H](CC(C)C)C(=O)N[C@@H](CO)C(=O)N[C@@H](C)C(=O)N[C@@H](CCCNC(=N)N)C(=O)N[C@@H](CCCNC(=N)N)C(=O)N[C@@H](CC(C)C)C(=O)N[C@@H](CC(C)C)C(=O)N[C@@H](CCC(N)=O)C(=O)N[C@@H](CC(=O)O)C(=O)N[C@H](C(=O)N[C@@H](CC(C)C)C(=O)N[C@@H](CO)C(=O)N[C@@H](CCCNC(=N)N)C(N)=O)[C@@H](C)CC)[C@@H](C)O)C(C)C)[C@@H](C)O [[H^0,R^12,T^15,R^21,L^27]hGRF(1-29)NH2] (H-HYADAIFTNSYRRVLTQLSARRLLQDILSR-NH2) | .26 % of std |
| CC[C@H](C)[C@H](NC(=O)[C@H](C)NC(=O)[C@H](CC(=O)O)NC(=O)[C@H](C)NC(=O)[C@H](Cc1ccc(O)cc1)NC(=O)[C@H](C)NC(C)=O)C(=O)N[C@@H](Cc1ccccc1)C(=O)N[C@H](C(=O)N[C@@H](CC(N)=O)C(=O)N[C@@H](CO)C(=O)N[C@@H](Cc1ccc(O)cc1)C(=O)N[C@@H](CCCNC(=N)N)C(=O)N[C@@H](CCCNC(=N)N)C(=O)N[C@H](C(=O)N[C@@H](CC(C)C)C(=O)N[C@H](C(=O)N[C@@H](CCC(N)=O)C(=O)N[C@@H](CC(C)C)C(=O)N[C@@H](CO)C(=O)N[C@@H](C)C(=O)N[C@@H](CCCNC(=N)N)C(=O)N[C@@H](CCCNC(=N)N)C(=O)N[C@@H](CC(C)C)C(=O)N[C@@H](CC(C)C)C(=O)N[C@@H](CCC(N)=O)C(=O)N[C@@H](CC(=O)O)C(=O)N[C@H](C(=O)N[C@@H](CC(C)C)C(=O)N[C@@H](CO)C(=O)N[C@@H](CCCNC(=N)N)C(N)=O)[C@@H](C)CC)[C@@H](C)O)C(C)C)[C@@H](C)O [[N-Ac-A^0,R^12,T^15,R^21,L^27]hGRF(1-29)NH2] (Ac-AYADAIFTNSYRRVLTQLSARRLLQDILSR-NH2) | .10 % of std |
| CC[C@H](C)[C@H](NC(=O)[C@H](C)NC(=O)[C@H](CC(=O)O)NC(=O)[C@H](C)NC(=O)[C@H](Cc1ccc(O)cc1)NC(=O)[C@H](C)NC(=O)[C@@H](N)CCCNC(=N)N)C(=O)N[C@@H](Cc1ccccc1)C(=O)N[C@H](C(=O)N[C@@H](CC(N)=O)C(=O)N[C@@H](CO)C(=O)N[C@@H](Cc1ccc(O)cc1)C(=O)N[C@@H](CCCNC(=N)N)C(=O)N[C@@H](CCCNC(=N)N)C(=O)N[C@H](C(=O)N[C@@H](CC(C)C)C(=O)N[C@H](C(=O)N[C@@H](CCC(N)=O)C(=O)N[C@@H](CC(C)C)C(=O)N[C@@H](CO)C(=O)N[C@@H](C)C(=O)N[C@@H](CCCNC(=N)N)C(=O)N[C@@H](CCCNC(=N)N)C(=O)N[C@@H](CC(C)C)C(=O)N[C@@H](CC(C)C)C(=O)N[C@@H](CCC(N)=O)C(=O)N[C@@H](CC(=O)O)C(=O)N[C@H](C(=O)N[C@@H](CC(C)C)C(=O)N[C@@H](CO)C(=O)N[C@@H](CCCNC(=N)N)C(N)=O)[C@@H](C)CC)[C@@H](C)O)C(C)C)[C@@H](C)O [[R^-1,A^0,R^12,T^15,R^21,L^27]hGRF(1-29)NH2] (H-RAYADAIFTNSYRRVLTQLSARRLLQDILSR-NH2) | .15 % of std |
| CC[C@H](C)[C@H](NC(=O)[C@H](C)NC(=O)[C@H](CC(=O)O)NC(=O)[C@H](C)NC(=O)[C@H](Cc1ccc(O)cc1)NC(=O)[C@@H]1CCCN1)C(=O)N[C@@H](Cc1ccccc1)C(=O)N[C@H](C(=O)N[C@@H](CC(N)=O)C(=O)N[C@@H](CO)C(=O)N[C@@H](Cc1ccc(O)cc1)C(=O)N[C@@H](CCCNC(=N)N)C(=O)N[C@@H](CCCNC(=N)N)C(=O)N[C@H](C(=O)N[C@@H](CC(C)C)C(=O)N[C@H](C(=O)N[C@@H](CCC(N)=O)C(=O)N[C@@H](CC(C)C)C(=O)N[C@@H](CO)C(=O)N[C@@H](C)C(=O)N[C@@H](CCCNC(=N)N)C(=O)N[C@@H](CCCNC(=N)N)C(=O)N[C@@H](CC(C)C)C(=O)N[C@@H](CC(C)C)C(=O)N[C@@H](CCC(N)=O)C(=O)N[C@@H](CC(=O)O)C(=O)N[C@H](C(=O)N[C@@H](CC(C)C)C(=O)N[C@@H](CO)C(=O)N[C@@H](CCCNC(=N)N)C(N)=O)[C@@H](C)CC)[C@@H](C)O)C(C)C)[C@@H](C)O [[P^0,R^12,T^15,R^21,L^27]hGRF(1-29)NH2] (H-PYADAIFTNSYRRVLTQLSARRLLQDILSR-NH2) | .20 % of std |
